# Measured values published in PubChem BioAssay AID463173 (ICCB-Longwood Screening Facility, Harvard Medical School, 2010).
# About 4,300 (8.3%) of roughly 52,000 compounds were called active. Rule as the data show it: active = survival mostly below about 52% (no sharp cut-off); inactive = mostly above about 56%. The list shows a part of the results.
# System: DeltatarO mutant
# Assay: S. aureus survival, RN4220 and DeltatarO strains – OD600, teichoic acid synthesis inhibitors, primary screen (AID 463173)
# Settings: S. aureus RN4220 wild type/DeltatarO growth, OD600, 18 h, stronger effect = lower value, screened at 18.75 µg/mL (by protocol)
row,SMILES,survival
1,CC1(N)CCS(=O)(=O)C1 (stereo unspecified),inactive: 89%
2,COc1ccccc1-c1noc(CCC(=O)Nc2ccc(C)cc2C)n1,inactive: 87%
3,CCOC(=O)CSc1ncnc2sc3c(c12)CCC3,inactive: 96%
4,CCCOc1ccc(CNC(=O)c2ccc(-n3c(C)cc4c3CCC(C)C4)cc2)cc1 (stereo unspecified),inactive: 97%
5,Cc1cc2oc(C(=O)Nc3ccc(S(=O)(=O)Nc4ncccn4)cc3)cc(=O)c2cc1C,inactive: 53%
6,CCOC(=O)C(O)C(C)(C)CN1C(=O)c2ccccc2C1=O (stereo unspecified),inactive: 76%
7,CCN(C(=O)CSc1nc2ccccc2[nH]1)c1ccccc1,inactive: 85%
8,Cc1ccc(NC(=O)Cn2ccn(-c3ccccc3)c(=O)c2=O)cc1,active: 56%
9,CCOc1ccc(C2NC(=O)c3c(COC)cc(C)nc3N2Cc2ccccc2)cc1OC (stereo unspecified),inactive: 130%
10,Cc1ccc(Cn2cc(S(=O)(=O)c3cccc(Cl)c3)c(=O)c3cc(F)c(N4CCOCC4)cc32)cc1,inactive: 85%
11,CC1Cc2ccccc2N1C(=O)CSc1nnc(-c2ccccc2Cl)o1 (stereo unspecified),active: 49%
12,C=CCOc1ccc(CNn2cn[nH]c2=S)cc1,inactive: 77%
13,NC(=O)C1CCN(C(=O)C2C3C=CC(O3)C2C(=O)O)CC1 (stereo unspecified),inactive: 98%
14,N#C/C(=C\c1c[nH]c2ccccc12)C(N)=O,inactive: 99%
15,CC(=O)c1ccc(Nc2cc(C)nc3nc(Cc4ccc(Cl)cc4)nn23)cc1,inactive: 60%
16,CCc1ccc2oc(C(=O)Nc3cc(C)ccc3C)cc(=O)c2c1,inactive: 52%
17,CC(C)c1nn2c(=O)cc(COC(=O)c3ccccc3NC(=O)C3CCCCC3)nc2s1,inactive: 90%
18,O=C(Nc1cc2c(cc1C(=O)c1ccccc1Cl)OCCO2)c1ccccc1,inactive: 113%
19,OCCN1CCN(C(c2ccccc2Cl)c2sc3nc(-c4ccco4)nn3c2O)CC1 (stereo unspecified),inactive: 55%
20,COc1ccc(CCNC(=O)c2ccc3c(c2)OCO3)cc1,inactive: 110%
21,N#CC(C#N)=C(C(C#N)=C1Nc2ccccc2N1)c1ccccc1F,inactive: 59%
22,Cc1cc(C)c(NC(=O)CCn2c(=O)c3cccn3c3cccnc32)c(C)c1,inactive: 79%
23,Clc1cccc(CNc2cc(-c3ccccc3)nc3nncn23)c1,inactive: 67%

row,SMILES,survival
1,Cc1cc(C)cc(Oc2coc3cc(OCC(=O)NC4CCCCC4)ccc3c2=O)c1,inactive: 136%
2,Cc1cc(N)c(-n2cc3c(c2-c2ccc(Br)cc2)c(=O)n(C)c(=O)n3C)cc1C,inactive: 66%
3,CCOc1ccc(OCC)c(NC(=O)CC(C)n2nc(C)cc2C)c1 (stereo unspecified),inactive: 84%
4,CCOc1ccc(-c2cc(C(=O)Nc3ccc(NC(C)=O)cc3)no2)cc1,inactive: 61%
5,O=C(O)CCCNc1cc(N2CCN(C3CCCCC3)CC2)c2noc3c2c1C(=O)c1ccccc1-3,inactive: 74%
6,CCCS(=O)(=O)N1CC(=O)N(c2cc(C)ccc2C)C(C)(C(=O)NC2CCCCCC2)C1 (stereo unspecified),inactive: 117%
7,COc1cccc(-c2cn3c(n2)sc2cc(C(=O)NCCc4ccc(OC)c(OC)c4)ccc23)c1,inactive: 49%
8,N#CC1=C(N)N(c2cccc(Cl)c2)C2=C(C(=O)CCC2)C1c1cc(CN2CCOCC2)cs1 (stereo unspecified),inactive: 70%
9,Cc1cccc(N2CCn3c2nc2c3c(=O)n(CCc3ccccc3)c(=O)n2C)c1,inactive: 92%
10,CC1Oc2ccccc2N(CC(=O)NCc2ccccc2)C1=O (stereo unspecified),inactive: 92%
11,Cc1cccc(N2C(=O)CS(=O)(=O)C23C(=O)N(Cc2c(F)cccc2Cl)c2ccccc23)c1 (stereo unspecified),inactive: 95%
12,CSc1cccc(NC(=O)CN2CCN(Cc3ccccc3C)S2(=O)=O)c1,inactive: 124%
13,COc1ccc(Cl)cc1NC(=O)Cn1cc(C(=O)c2ccc(C)cc2)c(=O)c2ccc(C)nc21,inactive: 73%
14,O=C1CCC(=O)N1CNc1ccccc1,inactive: 85%
15,CCOc1ccc(C(=O)Nc2cccc(C(=O)OCc3cc(=O)n4nc(C5CC5)sc4n3)c2)cc1,inactive: 83%
16,CCOC(=O)c1ccccc1NC(=O)CSc1nc(=O)[nH]c2c1CCC2,inactive: 78%
17,COc1ccc(CCNC(=O)c2c(O)nc3ccccn3c2=O)cc1,inactive: 81%
18,Cc1ccccc1CN1C(=O)C2(c3ccccc31)N(c1ccccc1)C(=O)CS2(=O)=O (stereo unspecified),inactive: 124%
19,CCOc1ccc(NC(=O)CC2C(=O)N(c3ccc(C)cc3)C(=O)N2CCC2=CCCCC2)cc1 (stereo unspecified),inactive: 71%
20,Nc1nonc1-c1nc2ccccc2n1Cc1cccc(Cl)c1,inactive: 80%
21,O=C(c1cccn2c(=O)c3cc(Cl)ccc3nc12)N1CCN(c2ccccc2F)CC1,inactive: 76%
22,Cc1ccc(CN(C(=O)c2ccccc2F)c2ccccn2)o1,inactive: 75%
23,CC(=O)Nc1ccc(S(=O)(=O)N2CCC(c3nnnn3-c3ccccc3)CC2)cc1,inactive: 76%

row,SMILES,survival
1,CCOc1ccc(-n2nc(CO)c(C(=O)NCCCc3ccccc3)n2)cc1,inactive: 89%
2,COc1ccc(OCC(=O)Nc2nnc3n2CCS3)cc1,inactive: 84%
3,CCOC(=O)N1CCN(Cc2nc3cc(NC(=O)c4ccc(OC)cc4)ccc3n2C(C)C)CC1,inactive: 80%
4,C=Cc1ccc(Cn2c(C)c(CNCCc3ccccc3C)c(C(=O)O)c2C)cc1,inactive: 53%
5,O=C(COc1ccc(Cl)cc1)Nc1ccc(C(=O)OCc2cc(=O)n3ccsc3n2)cc1,inactive: 88%
6,FC(F)(F)Oc1ccc2c(c1)NC(c1ccncc1)=NC(c1cccs1)=N2,inactive: 91%
7,Cc1ccn2c(=O)c(C(=O)NCCCN3CCCCC3C)c(O)nc2c1 (stereo unspecified),inactive: 86%
8,COc1ccc2oc(=O)c(C(=O)Nc3ccc(C(=O)O)cc3)cc2c1,inactive: 136%
9,C=CCc1cccc2cc(C(=O)Nc3ccc(F)cc3)c(=O)oc12,active: 44%
10,COc1cccc(CSc2nc3n(n2)C(c2cccc(F)c2)C(C(=O)Nc2ccccc2C)=C(C)N3)c1 (stereo unspecified),inactive: 86%
11,Cc1cccc(N2CCN(C(=O)c3ccc(CS(=O)c4cccc(Cl)c4)o3)CC2)c1C (stereo unspecified),active: 51%
12,Cc1ccc(O)c(NC(=O)c2cc(-c3ccc4c(c3)OCO4)on2)c1,inactive: 71%
13,CCCCOc1ccc(C(C)NC(=O)c2cccc(Nc3nc4ccccc4n4nnnc34)c2)cc1 (stereo unspecified),inactive: 67%
14,CCOc1ccc(CCNC(=O)CSc2n[nH]c(-c3ccccc3)n2)cc1OCC,inactive: 86%
15,Cc1c(CC(=O)N2CCCCC2)c(=O)oc2c(C)c3occ(C(C)(C)C)c3cc12,inactive: 60%
16,Cc1ccc(CN2CCSc3ccc(C(=O)NCCc4ccccc4)cc32)cc1,inactive: 81%
17,COc1ccc(Cl)cc1NC(=O)C1CCN(c2nnc(C)c3c(C)n(-c4ccccc4)nc23)CC1,inactive: 55%
18,O=c1n(Cc2cccc(F)c2)c2ccccc2c2nc(-c3ccccc3)nn12,active: 33%
19,CN(C)C=NC(=O)c1cc2c(n(-c3ccccc3)c1=O)CC(C)(C)CC2=O,inactive: 46%
20,CCOC(=O)C1=NNC2C(=O)N(CC)C(=O)C12 (stereo unspecified),inactive: 84%
21,Cc1ccc(NC(=O)C(=O)NCC(c2cccnc2)N2CCOCC2)cc1Cl (stereo unspecified),inactive: 92%
22,CC(=O)NC1(c2ccccc2)CCN(C(=O)c2cccs2)CC1,inactive: 94%
23,COc1ccc(CNC(=O)CCCN2C(=O)CSc3c2c(C)nn3-c2ccccc2)c(OC)c1,inactive: 76%

row,SMILES,survival
1,COCCNC(=O)CCC(=O)N1Cc2cccc(OC)c2Oc2ncccc21,inactive: 89%
2,COc1ccc(Cl)cc1NC(=O)CCS(=O)(=O)c1cccc2nonc12,inactive: 146%
3,COc1cccc(CNC(=O)Cc2csc3ccccc23)c1OC,inactive: 86%
4,COc1ccc(NC(=O)C(=O)NCC2(c3ccc(OC)c(OC)c3)CCCC2)cc1,inactive: 77%
5,CCc1ccc(NC(=O)Cn2ccn(Cc3ccccc3OC)c(=O)c2=O)cc1,active: 46%
6,CCn1cc(S(=O)(=O)c2cccc(Cl)c2)c(=O)c2cc(F)c(N3CCC(C)CC3)cc21,inactive: 90%
7,Cc1ccc(NC(=O)c2c(C)oc3ncnc(N4CCCCC4)c23)cc1Cl,inactive: 73%
8,Cc1ccc(-n2nc(C)c3c(C)cc(=O)n(CC(=O)N4CCCc5ccccc54)c32)cc1,inactive: 80%
9,COc1cccc(-c2ccc3c(N)c(C(=O)c4ccc(Br)cc4)sc3n2)c1,active: 28%
10,O=C(Cc1ccc(Cl)cc1)Nc1nnc2n1CCS2,inactive: 77%
11,COc1ccc(C)cc1NC(=O)CCc1c(C)nn(-c2ccc(N3CCOCC3)nn2)c1C,inactive: 67%
12,N/C(=N/c1nc2ccccc2o1)NC(=O)C(Cc1ccccc1)N1C(=O)c2ccccc2C1=O (stereo unspecified),inactive: 90%
13,COc1ccc(CCC(=O)NC2CC(=O)N(c3cccc(F)c3)C2)cc1 (stereo unspecified),inactive: 113%
14,CN(CC(=O)O)C(=O)c1ccco1,inactive: 85%
15,COc1ccc(NC(=O)CCCSc2nc(-c3ccco3)cc(C(F)(F)F)n2)c(OC)c1,active: 16%
16,CCCOC(=O)c1c(NC(=O)C2c3ccccc3Oc3ccccc32)sc2c1CCCC2,inactive: 77%
17,CCOc1ccc(N(CC)C(=O)C2CCN(S(=O)(=O)c3cccc4nonc34)CC2)cc1,inactive: 100%
18,COc1cc2c(cc1OC)CN(C(=O)CSc1nc(C)cc(C)c1C#N)CC2,inactive: 63%
19,CCCC(=O)Nc1nnc(SCc2cc(=O)c3ccc(C)cc3[nH]2)s1,inactive: 122%
20,O=C(CSc1ncc(S(=O)(=O)c2ccc(Cl)cc2)c(=O)[nH]1)Nc1ccc2c(c1)OCCO2,inactive: 75%
21,COc1cccc(C(=O)NCC(=O)OCc2cc(=O)n3nc(C)sc3n2)c1,inactive: 116%
22,CCOc1ccc(-c2c(C#N)c(N)nc3sc(C(=O)OC)c(N)c23)cc1,inactive: 79%
